Measured values as given in the supplement of paper PMC11417369.
± gives the standard deviation of the averaged measurements. The list shows a part of the results.

Tested on: PfAP2-LT AP2 domain (GST-tagged)
Test: gcPBM binding intensity (ln(normalized median fluorescence intensity)); higher = stronger DNA binding
In short: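 Binding of GST-tagged P. falciparum DNA-binding domains, expressed in E. coli and used at about 25 μg on average, was carried out for 1 h in 1× PBS containing 1% milk, 0.2 mg/ml BSA, 0.5% salmon testes DNA and 0.03% Triton X-100. The target was an Agilent 4 × 180k array of primer-extended double-stranded 36-bp intergenic genomic probes plus negative controls, read with Alexa488 anti-GST antibody at 488 nm. Binding intensity is the highest Masliner-normalised natural-log median intensity across replicate spots of either probe orientation.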

Sequence | gcPBM binding intensity (ln)
TTTTGAAGCTTTAAAACATATATATATATATATATA [CACACA_negctrl_site184] | 9.75 ± 0.41
AGCAAAACAAAAAAATTAAAATTAACATATAATCAT [GTGCAC_negctrl_site393] | 8.66 ± 0.57
AATAAGAGGATACATTGTACATAAAAAAAAAAAATA [XGTACX_site1815] | 8.78 ± 0.55
AATACCTACCAAACATGTACATACGCTTCTCAAATA [XGTACX_site5535] | 8.96 ± 0.39
TATATAAACACGTACACACACATATCTGTATTTATA [CACACA_site5858] | 9.44 ± 0.3
GTGAGCTCAGACTACACACACAAAGAAAAAAATAAA [CACACA_site1553] | 9.28 ± 0.66
ATATTTTTAGGTGATTATTATTCGGAGAAGCGAATT [CACACA_negctrl_site1097] | 8.47 ± 0.4
AACAAATACAGACACACACACACACCCAAAAAAAAA [CACACA_site515] | 10.2 ± 0.26
ATACAACAAAAATAAGCACACACAAATATACATACA [CACACA_site9201] | 9.7 ± 0.4
ATAAAAATTTAAAAAGAACACACGAAAGAAGGACTT [CACACA_site3929] | 9.01 ± 0.53
AATATTTTCTTGTACGCATGCACATCCAAATTATAT [TGCATGCA_site873] | 9.1 ± 0.38
TGACCTGTTCAGGTAACACACATATAAACACATACA [CACACA_site4186] | 9.2 ± 0.41
ATATATTAATAATTTTGTACGCATTTCCTTTTTATT [XGTACX_site1638] | 8.93 ± 0.46
AAAAAAAAAAAAAAATGTACAAATAAAGAAATATGA [XGTACX_site4371] | 8.76 ± 0.55
GAAAATATTTCCGTATGTACTTATTTTAGTCTACTA [XGTACX_site471] | 8.81 ± 0.42
ATACCCACTTAAAATACACACACACCGAAAAAAAAA [CACACA_site8867] | 9.65 ± 0.28
AGGTTCTTTTTAAATGGTACACATAATTTGAAGATA [XGTACX_site400] | 8.49 ± 0.54
GTGTATAGAATGGTTTCTTTTAAGGTTTTTATTTTT [CACACA_negctrl_site564] | 8.72 ± 0.42
TCTTAAAAGGGGAATGGAATGGAGAAAATGAAATAA [GTGCAC_negctrl_site30] | 8.46 ± 0.58
ATGAATACAAAATTATACAAAATTATCAAAAGTATG [CACACA_negctrl_site1453] | 8.76 ± 0.48
CTTTTTATTTAGAACACACACAAAAAAAAAAAAAAA [CACACA_site1761] | 8.58 ± 0.4
TGCAGTCTGGAGAAACGTACATAGTATCTGGTAGCT [XGTACX_site4937] | 8.94 ± 0.57

Sequence | gcPBM binding intensity (ln)
ATACATAAATATATATGTACATATATATATATATAT [XGTACX_site1055] | 9.54 ± 0.12
AAAATATATTTAAATTGTACACGTTACCATAACAAT [XGTACX_site2598] | 8.71 ± 0.39
TATGTTTTTACATATTGTACATATTCTTGTAATACG [XGTACX_site1179] | 8.88 ± 0.45
ATTATAATGTTAATGTGTACATATGATTCCTTAATT [XGTACX_site181] | 8.9 ± 0.38
TATGTGTGCAAAAACTGTACACATTAAAGGTATATA [XGTACX_site7627] | 9.38 ± 0.33
ATAAATAAATAAGTACATATATATATGTATATATAT [TGCATGCA_negctrl_site223] | 9.05 ± 0.42
ATGACATGTTCTAAATGTACATTTTTTAACCCTTTT [XGTACX_site1858] | 8.81 ± 0.56
TATGGTTACATTATATGTACTAAACGAATATTTTTA [XGTACX_site5694] | 8.47 ± 0.48
TATACAAGTATATAGGTGCATATATAAGTATATATT [GTGCAC_site9994] | 8.86 ± 0.45
TACTTTCAAAAGATCACACATATATATATATATATA [CACACA_site5630] | 9.8 ± 0.042
TAATAACATACAGACACACACGTAAAAGCACGTGTA [CACACA_site4299] | 9.26 ± 0.42
TAATATATATATATATGTACATATATATTATGTATA [XGTACX_site4690] | 8.88 ± 0.23
AGATTATTTAGAATGTGTACATATTACACATACATG [XGTACX_site8634] | 8.94 ± 0.43
ACTACATTATGTCATACATGCATACATACGTGGTTT [TGCATGCA_site732] | 9.1 ± 0.45
CATTAAAAGTATAATTGTACTTTTCATTTATATATT [XGTACX_site7536] | 8.63 ± 0.53
AGTAATTTAAGGAATACACACAAGAAAAAAATAAGA [CACACA_site6177] | 9.13 ± 0.61
TTTTTAACCAAACATCAAAACATATTTTTTTGTTAT [CACACA_negctrl_site385] | 8.38 ± 0.47
GTATACCTTTTGACATGTACGTATGTATATTTGGGT [XGTACX_site720] | 9.08 ± 0.41
CATACATACAAACACACACACACACCCATATATATA [CACACA_site2918] | 10.1 ± 0.31
AAAAAAAAAAAACACACACACACATAAATATATATA [CACACA_site149] | 10.1 ± 0.18
TGTAAATTTGGCATCACACATAAATAAACATATAAA [CACACA_site4497] | 8.77 ± 0.45
TATTAACATATATAAAGTACATTAAACAACATTGTA [XGTACX_site7667] | 8.59 ± 0.41

Sequence | gcPBM binding intensity (ln)
TTTTCACTTTTAAAAACATGCATACTTTATAAAATA [TGCATGCA_site967] | 8.34 ± 0.45
TATATATAAAAAAGCACACATACATACATACATAAT [CACACA_site890] | 9.23 ± 0.32
TACACAAGCGGACACACACACATATATATATATATA [CACACA_site4832] | 10.415 ± 0.0071
AACATTCTAAAACACACACACACATATATATATATA [CACACA_site1052] | 9.98 ± 0.11
TGGTAAAGGAGCAAGATGATAAATCTCCATAACTTT [CACACA_negctrl_site492] | 8.65 ± 0.49
ATGTCTATAATAAGAACACACATATATTTAATTTAA [CACACA_site7394] | 8.71 ± 0.46
CTATATTCGTTTAATAGTACATATATAACTAGACAA [XGTACX_site5770] | 8.54 ± 0.42
GTTGGTACCTTACTTTTACACACTTTTTTTTTTTTT [CACACA_site8441] | 9.14 ± 0.49
TATATATATATGTATACACACATACAAATATGTAAA [CACACA_site9238] | 9.1 ± 0.12
AAAAGAAATATTTATACACACACACTAACATATATA [CACACA_site8580] | 9.65 ± 0.35
GTGAAAAAAAACATATGTACTTATACACTAATCTAT [XGTACX_site7600] | 8.87 ± 0.42
TTATCATTTTAATGGTGTACTCAATAAAAACTTTAA [XGTACX_site4595] | 8.16 ± 0.31
TTATATATAATTACATGTACGTAGTATTATTTAAAT [XGTACX_site3418] | 8.62 ± 0.36
TACACAAGAAAATTCACACACACACCCATATATATA [CACACA_site3879] | 10.12 ± 0.092
ATGTAATTATAAGATTAATATACATAATTATATGTA [GTGCAC_negctrl_site458] | 8.61 ± 0.54
AACATACATGTATATAGTACATATTACATCTGATAC [XGTACX_site3649] | 9.06 ± 0.39
CATAGATACATACACGCACACACATATATATATATA [CACACA_site13] | 10.2 ± 0.17
GTATTACCTTATTATTGTACTTTCATGATATATATG [XGTACX_site5382] | 9.02 ± 0.47
TTAATGAATGGACACACACACATATATATATATATT [CACACA_site5294] | 9.805 ± 0.021
ATAAAAAAAATTTGCACACCTTCAAAGTAATATATA [CACACA_site1584] | 8.78 ± 0.43
TAATTTTTTTTTTTTTTTTTTGTACTTCATTTTTAT [CACACA_negctrl_site1395] | 8.66 ± 0.62
AAAAAAAAAAAAAGTACATGCAATATGGATCTTAAA [TGCATGCA_site367] | 8.76 ± 0.45

Sequence | gcPBM binding intensity (ln)
CATATAAAAGGACACACACACACATATAAATATGTA [CACACA_site6568] | 9.88 ± 0.3
TGCTATTTTATTTATTCTTTTATAAAAGTATAATAT [XGTACX_negctrl_site358] | 8.56 ± 0.46
ATTTTTATAGAATGAACACACATATTATAGCATTTA [CACACA_site6842] | 8.76 ± 0.35
TTTTATTGTTGTTATACACACCATATAAAATATTTC [CACACA_site4983] | 8.79 ± 0.44
ATTCACTAAAAAATTGCATGCAATAAATTTTTTTTT [TGCATGCA_site962] | 8.65 ± 0.35
AATTGATTTATATATTGTACATATAAATTTATGTAT [XGTACX_site7785] | 8.89 ± 0.44
TTGCATATTTCTAATTGTACATTATTTTATTTTATA [XGTACX_site8451] | 8.79 ± 0.45
GGGAAAATAAATAAAGTGCAGATATTAAAAGTTGTA | 8.86 ± 0.5
AATAAAAAATATATGAGTACTAAATTGTTTTCTTAA [XGTACX_site8573] | 8.5 ± 0.65
CTCAACGATAGAGAAACATGCAAGTATAAGCAACTA [TGCATGCA_site771] | 8.96 ± 0.4
ATATTTATCTTTTTATGTACATATGCCCCTTTTCTG [XGTACX_site673] | 9.04 ± 0.46
ATTTTACATATTTGCACACATATATTTAAATACATA [CACACA_site4627] | 9.16 ± 0.4
AAGAAAATTAAATTAACACACATAAATATATATATA [CACACA_site1664] | 8.93 ± 0.38
GAGTTATTTCTTATTTAAGCATTCTACATATATATA [CACACA_negctrl_site239] | 8.84 ± 0.46
GTCCTTATGGATGATAAATTATTTTAAATATTCTAT [XGTACX_negctrl_site200] | 8.32 ± 0.45
TCTTGGTTATTAAAAAAAAAAAAATATATTTTTCCT [TGCATGCA_negctrl_site445] | 8.14 ± 0.47
TCATATGTTTCATGTTGTACATTGAAAGTTTGGCTA [XGTACX_site3202] | 8.64 ± 0.37
GTTCTAATATATTGCACACGTAAAAATATAGGTAAT [CACACA_site886] | 9.08 ± 0.35
AAATATGTACATATTATATATATATAATATATATTG [TGCATGCA_negctrl_site438] | 8.78 ± 0.4
TGTTAATTAAAGGACTGTACACTAATAATTCTATAA [XGTACX_site5195] | 8.59 ± 0.38
TAATTGTACGCCAATACACACAGAATTAGAATGTAG [CACACA_site102] | 9.11 ± 0.32
ATAAATAAATGGTGTTGTACTCTATTATATATATAT [XGTACX_site7835] | 8.93 ± 0.32
